Consider 56 compounds from article PMC4336329 (PLoS ONE, 2015).

About 14,000 (4.5%) of roughly 310,000 compounds showed an effect of 50% or more. Effects have a minus sign here. The list shows a part of the results.
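Also: peak tail current of the secondary pulse compared with the same well before compound.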

The assay deals with human ether-à-go-go-related gene (hERG) potassium channel (human, UniProt Q12809). As to the kind of experiment: primary screen, population patch clamp on CHO cells stably expressing hERG.
Chain of human ether-à-go-go-related gene (hERG) potassium channel (Q12809 whole entry, looked up): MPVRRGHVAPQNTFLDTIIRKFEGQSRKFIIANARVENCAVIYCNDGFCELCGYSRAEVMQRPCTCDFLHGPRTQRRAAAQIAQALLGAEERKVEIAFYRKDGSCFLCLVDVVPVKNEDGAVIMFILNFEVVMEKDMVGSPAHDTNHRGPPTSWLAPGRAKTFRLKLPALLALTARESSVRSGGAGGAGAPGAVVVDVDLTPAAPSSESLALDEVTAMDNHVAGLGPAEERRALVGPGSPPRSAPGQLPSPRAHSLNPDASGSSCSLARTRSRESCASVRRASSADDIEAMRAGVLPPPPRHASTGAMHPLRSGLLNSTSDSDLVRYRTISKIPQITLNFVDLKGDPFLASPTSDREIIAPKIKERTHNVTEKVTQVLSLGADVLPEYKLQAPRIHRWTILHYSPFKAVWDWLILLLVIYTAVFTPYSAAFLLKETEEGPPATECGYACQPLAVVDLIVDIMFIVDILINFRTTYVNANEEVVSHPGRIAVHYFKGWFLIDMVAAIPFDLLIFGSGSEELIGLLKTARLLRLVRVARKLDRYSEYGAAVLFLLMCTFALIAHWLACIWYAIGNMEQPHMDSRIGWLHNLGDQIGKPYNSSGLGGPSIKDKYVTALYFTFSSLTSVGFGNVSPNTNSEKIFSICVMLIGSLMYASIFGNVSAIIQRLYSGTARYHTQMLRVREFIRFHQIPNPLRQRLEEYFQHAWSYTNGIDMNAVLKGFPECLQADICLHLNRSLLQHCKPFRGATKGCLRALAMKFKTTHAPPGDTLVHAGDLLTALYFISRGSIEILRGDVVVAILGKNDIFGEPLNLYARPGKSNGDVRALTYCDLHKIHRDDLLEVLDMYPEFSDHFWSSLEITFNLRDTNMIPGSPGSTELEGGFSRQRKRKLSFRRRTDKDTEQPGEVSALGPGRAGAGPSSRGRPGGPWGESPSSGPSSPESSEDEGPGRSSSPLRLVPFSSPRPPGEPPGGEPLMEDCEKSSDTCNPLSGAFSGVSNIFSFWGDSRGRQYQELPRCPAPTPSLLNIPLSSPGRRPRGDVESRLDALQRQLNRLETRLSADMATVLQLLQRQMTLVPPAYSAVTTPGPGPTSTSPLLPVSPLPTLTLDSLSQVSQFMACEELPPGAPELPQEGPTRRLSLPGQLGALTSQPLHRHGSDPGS
Regarding `CCCc1cc(=O)[nH]c(SCC(=O)N(CC)Cc2ccccc2)n1`, the “hERG current change (%, negative = inhibition) at 10uM” value amounted to 7.9%.
Then `Clc1ccc2c(c1)C(OC1CN3CCC1CC3)c1ccccc1CS2.O=C(O)/C=C\C(=O)O` (centres unmarked), with -50.6%; and `Fc1ccc(-c2nnc(CSc3nnc4ccccn34)o2)cc1`, with -4.03%; and `CCCc1cc(=O)[nH]c(Nc2cc(OC)ccc2OC)n1`, with 4.36%.
Regarding `Cc1ccccc1-n1nnnc1SC(C)C(=O)NC1CCCc2ccccc21` (centres unmarked), the “hERG current change (%, negative = inhibition) at 10uM” value is -18.4%.
As to `CC(=O)Nc1nnc(SCC(=O)NC2CCCC2)s1`, the “hERG current change (%, negative = inhibition) at 10uM” value is given as 17.4%.
Take `COc1ccc(N(CC(=O)NC2CC3CCC2C3)S(=O)(=O)c2ccc(C)cc2)cc1OC` (centres unmarked): the “hERG current change (%, negative = inhibition) at 10uM” value was found to be 33.9%.
Then `Cc1cc(Cn2nc(-c3ccccc3)cc2C(=O)NCC2CC2)on1`, with 9.32%; and `COc1ccc(NCc2ccc(OC)c(OC)c2)cc1`, with 2.67%; and `CC(=O)c1ccc(NC(=O)Cn2cnc(S(=O)(=O)N3CCOCC3)c2)cc1`, with 19.9%.
Then `CCOC(=O)c1c(N)sc(=S)c2c1CCC2`, with 0.392%.
Consider `COC(=O)c1ccccc1NC(=O)c1ccnn1C`, for which the “hERG current change (%, negative = inhibition) at 10uM” value was determined as 10.4%.
With `Cc1nnc(SCC(=O)NCCN2C(=O)CSC2=O)n1-c1ccccc1`, the “hERG current change (%, negative = inhibition) at 10uM” value amounted to 15.4%.
Then `CCOC(=O)c1nc(-c2ccccc2)oc1N1CCOCC1`, with -18.9%; and `N#C/C(=C\Nc1ccc(Cl)cn1)S(=O)(=O)c1ccccc1`, with 2.13%; and `CC(C)n1cc(NC(=O)c2cc(-c3ccccc3)on2)cn1`, with -32.6%.
Then `COC(=O)c1c(NC(=O)C2COc3ccccc3O2)sc2c1CCN(C(C)=O)C2` (centres unmarked), with -45.1%; and `COc1ccc(CCN(C)C(=O)CNC(=O)c2ccccc2F)cc1OC`, with 9.4%.
Regarding `COc1ccc2oc(C(=O)OCC(=O)c3ccc4c(c3)OCCO4)c(C)c2c1`, the “hERG current change (%, negative = inhibition) at 10uM” value amounted to 18.2%.
Then `COc1ccc(N2CCN(C(=O)c3ccc(CNS(=O)(=O)c4ccc(C)cc4)cc3)CC2)cc1`, with 13.9%; and `S=c1[nH]nc(C2CC2)n1Cc1ccco1`, with 3.93%.
Then `COc1cc2c(cc1OC)CN(CC(O)c1ccccc1)CC2` (centres unmarked), with 14.4%; and `COc1cc(NC(=O)c2cc(C3CC3)on2)c(OC)cc1Cl`, with -2.28%.
Then `Cc1cc(C)c2c(c1)N[C@H](c1cccs1)[C@@H]1CCO[C@H]21`, with -5.78%; and `CCOC(=O)C(CCCCP(=O)(c1ccccc1)c1ccccc1)(NC(C)=O)C(=O)OCC`, with -12.1%; and `O=[N+]([O-])c1ccc(-c2n(-c3ccccn3)c3ccccc3[n+]2-c2ccccn2)cc1.[I-]`, with -24.1%.
With `CCc1ccc(N(CC(=O)NCc2ccc(OC)cc2)C(=O)CCC(=O)Nc2ccccn2)cc1`, the “hERG current change (%, negative = inhibition) at 10uM” value is listed as -42.3%.
Then `CCC(C)N1C(=O)N(c2cccc(Cl)c2)C(C)(O)CC1(C)C` (centres unmarked), with 3.31%; and `O=C(O)c1cccc(C(=O)Nc2cccc(NC(=O)C3CCCO3)c2)c1` (centres unmarked), with 23.1%; and `Cn1nc(C(=O)NCc2ccccc2)c2c1-c1ccccc1S(=O)(=O)C2`, with -33.4%.
On to `COc1cc2ccccc2cc1C(=O)Nc1ccc(O)cc1`, for which the “hERG current change (%, negative = inhibition) at 10uM” value is reported as 2.49%.
For `O=C(N/C(=C/c1ccc2c(c1)OCO2)C(=O)N1CCOCC1)c1cccs1`, the “hERG current change (%, negative = inhibition) at 10uM” value is recorded as 9.12%.
Take `O=C(CC1OC(=O)c2ccccc21)Nc1cc(S(=O)(=O)N2CCOCC2)ccc1OCC(F)(F)F` (centres unmarked): the “hERG current change (%, negative = inhibition) at 10uM” value is reported as -52.2%.
Then `Cc1ccc(C(C)(C)C)cc1S(=O)(=O)NC(=O)c1ccccc1`, with 17%.
With `O=C(c1ccccc1F)N(Cc1ccccc1)C1CCS(=O)(=O)C1` (centres unmarked), the “hERG current change (%, negative = inhibition) at 10uM” value is listed as 3.86%.
Then `O=C(Cn1cnc2scc(-c3ccc(F)cc3)c2c1=O)N1CCOCC1`, with 4.91%; and `CC(C(=O)Nc1ccc(Br)cc1C(=O)c1ccccc1)N1CCOCC1` (centres unmarked), with -58.6%.
Then `CN(Cc1ccccc1)C(=O)CCCn1c(=O)c2cccn2c2cccnc21`, with -32.3%; and `O=C1CCC/C1=C\Nc1ccc(Cl)c([N+](=O)[O-])c1`, with 7.12%; and `COc1ccc(CC(=O)N/N=C/c2cccn2-c2ccc([N+](=O)[O-])cc2)cc1OC`, with -37.9%.
Regarding `COc1cccc(-c2cc(C(=O)Nc3cc(C)nn3-c3ccccc3)no2)c1`, the “hERG current change (%, negative = inhibition) at 10uM” value is reported as 6.19%.
Then `Cc1[nH]c(=S)[nH]c(=O)c1Cc1ccc(OCC(C)C)cc1`, with 5.14%; and `Cc1cccc(NC(=O)c2cc(=O)c3ccccc3o2)c1`, with 18.3%; and `CC(=O)C1=C(O)C(=O)N(Cc2cccnc2)C1c1ccc(O)cc1` (centres unmarked), with 14.5%.
Then `O=C(Nc1nc2ccccc2s1)c1cc(-c2ccco2)nc2ccccc12`, with 4.78%; and `CC(=O)Nc1ccc(S(=O)(=O)N2CCCCC2c2cccnc2)cc1` (centres unmarked), with 2.45%; and `CC1(C)Cc2ccccc2C(N/N=C/c2cccc(F)c2)=N1.Cl`, with -19.6%.
Then `CCN(CC(=O)Nc1ccccc1C(F)(F)F)C(=O)/C=C/c1ccc(Cl)c([N+](=O)[O-])c1`, with 10.1%.
Turning to `O=C(CN1C(=O)CCC1=O)NC(=O)NC1CCCC1`, the “hERG current change (%, negative = inhibition) at 10uM” value is on record as 5.2%.
Consider `CCOc1ccc(NC(=O)C2CC(=O)N(Cc3ccco3)C2)cc1` (centres unmarked), for which the “hERG current change (%, negative = inhibition) at 10uM” value is given as 7.34%.
Then `Cc1ccc(C)c(OCCC(=O)OCC(=O)NC(=O)NCc2ccccc2)c1`, with 4.16%; and `CC/C(=C\C(=O)c1ccncc1)Nc1ccc(Br)cc1`, with -34.9%; and `Cc1ccc(C)c(NC(=S)Nc2cccc3cnccc23)c1`, with 3.91%.
Then `COc1cc2nc(NC(=O)c3ccc(Cl)cc3)[nH]c(=O)c2cc1OC`, with 3.94%; and `Cc1ccc(N2CCN(C(=O)c3cc(COc4c(C)cccc4C)on3)CC2)c(C)c1`, with 11.1%; and `CN1C(=O)N(C)C(=O)C2(Cc3cc(NC(=O)c4ccccc4Cl)ccc3N3CCCC32)C1=O` (centres unmarked), with 10.4%.
